Laboratory results taken from PubChem BioAssay AID493208 (National Center for Advancing Translational Sciences (NCATS), 2011).
Among all 44,000 compounds or so, about 340 (0.77%) were called active. Inconclusive results (about 5%) are left out. Calls follow the shape of the dose curve; as a rule, active = well fitted inhibition curve with a large enough effect; inconclusive = small, poorly fitted or top-dose-only effect; inactive = flat fitted curve, though single readings scatter. Some of the results follow.

Assay: Acumen qHTS Assay for Inhibitors of the mTORC1 Signaling Pathway in MEF (Tsc2-/-, p53-/-) Cells: Sytravon;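 also: plate controls were DMSO for no effect and rapamycin for full effect; nearly all actives have a fitted effect of over 50% in size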
Details: phospho-rpS6 immunofluorescence/PI, 24 h; series mostly up to 38.3 µM; activity change, negative = inhibition: at the top concentration
Outline: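 Tsc2-/-, p53-/- MEFs (empty-vector stable line) in DMEM + 10% FBS were treated with compounds 24 h at 37 degree Celsius, fixed, and immunostained for phospho-rpS6 (Alexa-488) with propidium iodide counterstain. Laser-scanning cytometry gave % positive cells, normalized against 7.5 nM rapamycin and DMSO.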

Activity change, negative = inhibition, inactive:
CC1CCCCN1C(=O)c1ccc2c(c1)N(Cc1cccc(Cl)c1)C(=O)c1ccccc1S2=O (stereo not drawn) 2.27%
Cc1cc(N(C)Cc2ccccc2)n2nc(-c3ccc(C(C)(C)C)cc3)nc2n1 3.11%
CC1CCN(c2nc3c(-c4cccc(Br)c4)nnn3c3ccccc23)CC1 1.39%
COc1ccc(OCCn2nnc3sc4c(c3c2=O)CCC(C(C)(C)C)C4)cc1 (stereo not drawn) 4.63%
CCOc1ccc(-c2c(C)nn3c(C)c(C(=O)NCc4ccc(Cl)cc4)cnc23)cc1OCC -9.88%
CCc1ccc(-n2nc3cc(C)c(NC(=O)c4ccccc4C)cc3n2)cc1 1.84%
CCC(NC(=O)Nc1cc(Cl)ccc1OC)c1c(-n2cccc2)sc2c1CCN(C)C2 (stereo not drawn) -3.72%
COc1ccc(CNC(=O)CCc2c(C)nn(-c3ccc(N4CCCCC4)nn3)c2C)cc1 5.24%
CCCCCn1c(=O)[nH]c2cc(C(=O)NCCN(C)CCCC)ccc2c1=O -17.4%
N=c1n(CCO)c2ccccc2n1Cc1ccccc1F -14.7%
O=C(CSc1c2c(nc3ccc(Cl)cc13)CCCC2)NCc1ccccc1Cl -2.03%
COc1ccc(CCNC(=O)c2cc(=O)c3cc(C)cc(C)c3o2)cc1OC -0.454%
O=C(OCc1ccco1)c1ccc2c(c1)N(Cc1cccc(F)c1)C(=O)c1ccccc1S2 9.01%
CCC(Sc1nc2ccccc2c2nc(CCn3c(C)nc4ccccc43)nn12)C(=O)Nc1ccc(F)cc1 (stereo not drawn) 2.19%
CCOc1ccccc1NC(=O)CC(c1ccc(F)cc1)N1Cc2ccccc2C1=O (stereo not drawn) -2.01%
Cc1ccc(-c2cc(C(=O)OCC(=O)c3ccccc3)c3cccc(Cl)c3n2)cc1 -23.8%
COc1ccccc1N1CCN(C(=O)C2CCN(S(=O)(=O)Cc3ccccc3)CC2)CC1 -2.42%
CCC(Cc1ccccc1)NC(=O)CN1C(=O)COc2ccc(S(=O)(=O)N3CCCCCC3)cc21 (stereo not drawn) -11%
Cc1cc2c(cc1NC(=O)c1ccccc1C)n(C)c(=O)c(=O)n2C 1.75%
COc1ccc(CCNC(=O)CCCn2c(=O)c3cccn3c3ccccc32)cc1OC 4.6%
CCOCCCNC(=O)C1CCN(C(=O)c2cc3sccc3n2C)CC1 0.558%
COc1ccc(NC(=O)CCCN2C(=O)C(c3ccccc3)Oc3cccnc32)c(OC)c1 (stereo not drawn) -2.4%
CCc1ccc(CNC(=O)CCCN2C(=O)CCn3nc(-c4cccn4C)cc32)cc1 5.6%
CCc1ccc2oc(C(=O)Nc3cccc(Cl)c3C)cc(=O)c2c1 -2.64%
CC(C)CCN(Cc1ccco1)C(=O)c1cc2c(s1)-c1ccccc1OC2 -4.24%
COc1cc(-c2nnc(SCCOc3ccc(Cl)cc3)o2)cc(OC)c1OC -16.6%
O=C(COc1ccccc1)OCc1cc(=O)n2nc(C3CC3)sc2n1 -5.74%
Cc1ccc(C(=O)c2c(N)c(-c3nc(-c4ccc5c(c4)OCO5)cs3)c3ccccn23)cc1C 0.267%
Cc1cccc(N2CCN(C(=O)Cc3c(C(=O)O)c(C)cn3C)CC2)c1C 2.12%
Cc1ccc(C(=O)Nc2cc(-c3nc4ncccc4o3)ccc2C)c(C)c1 0.45%
COCc1nn2cc(-c3ccc(C)cc3)nc2s1 -11.4%
CC(=O)N1CCc2c(sc3c2c(=O)n(Cc2ccccc2)c(=O)n3Cc2ccc(C)cc2)C1 0.278%
COC(=O)c1ccc(Cn2cnc3nc4c(cc3c2=O)CCCC4)cc1 2.39%
CC(=O)c1ccc(N2CCN(C(=O)C3CCN(S(=O)(=O)c4c(C)noc4/C=C/c4ccc(C)cc4)CC3)CC2)cc1 0.037%
CCOc1ccccc1CNC(=O)C1CCN(S(=O)(=O)c2ccc3[nH]c(=O)ccc3c2)CC1 0.275%
CCOc1ccccc1NC(=O)Cn1ncc2c(=O)oc3ccc(C)cc3c21 0.0134%
COc1ccccc1NC(=O)CSC1=Nc2ccccc2C2=NC(CCC(=O)NCCc3ccccc3)C(=O)N12 (stereo not drawn) 1.73%
CCOC(=O)c1c(C)oc2ncnc(Nc3ccc(OC)cc3OC)c12 0.392%
O=C(Nc1nc2c(s1)CCCCCC2)Nc1ccc(F)cc1F -1.04%
COc1ccc(N2CCN(C(c3ccccc3)c3sc4nc(-c5ccco5)nn4c3O)CC2)cc1 (stereo not drawn) -2.51%
Cc1ccc(C(=O)N2CCc3cc(CNS(=O)(=O)c4cccs4)ccc32)cc1 0.138%
CN1C(=O)Cc2cc(S(=O)(=O)NCCc3ccc(Cl)cc3)ccc21 -9.49%
COc1ccc(-c2noc(CSc3nnc(C)n3-c3ccc(C)cc3)n2)cc1OC 4.25%
COc1ccccc1N1CCN(C(=O)c2cn(CC(C)C)c(=O)c3c2c2ccccc2n3C)CC1 2.24%
O=C(Nc1ccc(O)c(-c2nc3ccccc3o2)c1)c1sc2ccccc2c1Cl 10.2%
CCCOc1ccc(NC(=O)CC2C(=O)N(c3cccc(OC)c3)C(=O)N2Cc2cccs2)cc1 (stereo not drawn) -1.19%
O=C(CSCc1cnn(-c2ccccc2)c1-n1cccc1)NCc1ccc(Cl)cc1 3.15%
Cc1cc(F)ccc1S(=O)(=O)Nc1ccc2oc3c(c2c1)CC(C)CC3 (stereo not drawn) -19.1%
